Results taken from patent US20260297081A1, “COMPOUNDS AND METHODS OF TREATING CANCERS” (Cullgen Inc., priority 2023, published 2026).
The name of at least one read-out is uncertain.

System: CyclinD1 (CCND1)
Assay: Cyclin D1 (CCND1) percentage degradation in Calu-1 cells (Table 6)
Assay type: cell-based
Conditions: 16 hours

Structure (SMILES)	CyclinD1 Degradation (40 nM)	CyclinD1 Degradation (200 nM)
CNc1ccc(C(=O)Nc2ccc(C(F)(F)F)nn2)c(NCCCCCNC(=O)CN2CCN(c3ccc(Nc4ncc5c(C)c(C(C)=O)c(=O)n(C6CCCC6)c5n4)nc3)CC2)n1 [CPD-19, 2-((5-(2-(4-(6-((6-Acetyl-8-cyclopentyl-5-methyl-7-oxo-7,8-dihydropyrido[2,3-d]pyrimidin-2-yl)amino)pyridin-3-yl)piperazin-1-yl)acetamido)pentyl)amino)-6-(methylamino)-N-(6-(trifluoromethyl)pyridazin-3-yl)nicotinamide]	D (degradation activity <30%)	–
CNc1ccc(C(=O)Nc2ccc(Cl)cn2)c(NCCCCCNC(=O)CN2CCN(c3ccc(Nc4ncc5c(C)c(C(C)=O)c(=O)n(C6CCCC6)c5n4)nc3)CC2)n1 [CPD-20, 2-((5-(2-(4-(6-((6-acetyl-8-cyclopentyl-5-methyl-7-oxo-7,8-dihydropyrido[2,3-d]pyrimidin-2-yl)amino)pyridin-3-yl)piperazin-1-yl)acetamido)pentyl)amino)-N-(5-chloropyridin-2-yl)-6-(methylamino)nicotinamide]	D (degradation activity <30%)	–
CNc1ccc(C(=O)Nc2ccc(N(C)C)nn2)c(NCCCCCNCCN2CCN(c3ccc(Nc4ncc5c(C)c(C(C)=O)c(=O)n(C6CCCC6)c5n4)nc3)CC2)n1 [CPD-21, 2-((5-((2-(4-(6-((6-Acetyl-8-cyclopentyl-5-methyl-7-oxo-7,8-dihydropyrido[2,3-d]pyrimidin-2-yl)amino)pyridin-3-yl)piperazin-1-yl)ethyl)amino)pentyl)amino)-N-(6-(dimethylamino)pyridazin-3-yl)-6-(methylamino)nicotinamide]	B (50%< degradation activity <80%)	–
CNc1ccc(C(=O)Nc2ccc(N(C)C)nn2)c(NCCCCC(C)NC(=O)CN2CCN(c3ccc(Nc4ncc5c(C)c(C(C)=O)c(=O)n(C6CCCC6)c5n4)nc3)CC2)n1 (stereo not drawn) [CPD-22, 2-((5-(2-(4-(6-((6-Acetyl-8-cyclopentyl-5-methyl-7-oxo-7,8-dihydropyrido[2,3-d]pyrimidin-2-yl)amino)pyridin-3-yl)piperazin-1-yl)acetamido)hexyl)amino)-N-(6-(dimethylamino)pyridazin-3-yl)-6-(methylamino)nicotinamide]	A (degradation activity >80%)	A (degradation activity >80%)
CNc1ccc(C(=O)Nc2ccc(N(C)C)nn2)c(N(C)CCCCCNC(=O)CN2CCN(c3ccc(Nc4ncc5c(C)c(C(C)=O)c(=O)n(C6CCCC6)c5n4)nc3)CC2)n1 [CPD-23, 2-((5-(2-(4-(6-((6-Acetyl-8-cyclopentyl-5-methyl-7-oxo-7,8-dihydropyrido[2,3-d]pyrimidin-2-yl)amino)pyridin-3-yl)piperazin-1-yl)acetamido)pentyl)(methyl)amino)-N-(6-(dimethylamino)pyridazin-3-yl)-6-(methylamino)nicotinamide]	D (degradation activity <30%)	D (degradation activity <30%)
CNc1ccc(C(=O)Nc2ccc(N(C)C)nn2)c(Nc2cnn(CCNC(=O)CN3CCN(c4ccc(Nc5ncc6c(C)c(C(C)=O)c(=O)n(C7CCCC7)c6n5)nc4)CC3)c2)n1 [CPD-24, 2-((1-(2-(2-(4-(6-((6-Acetyl-8-cyclopentyl-5-methyl-7-oxo-7,8-dihydropyrido[2,3-d]pyrimidin-2-yl)amino)pyridin-3-yl)piperazin-1-yl)acetamido)ethyl)-1H-pyrazol-4-yl)amino)-N-(6-(dimethylamino)pyridazin-3-yl)-6-(methylamino)nicotinamide]	A (degradation activity >80%)	A (degradation activity >80%)
CNc1ccc(C(=O)Nc2ccc(N(C)C)nn2)c(Nc2cnn(CCNC(=O)CN3CCN(c4ccc(Nc5ncc6c(C)c(C(C)=O)c(=O)n(C7CCCC7)c6n5)nc4)CC3)n2)n1 [CPD-25, 2-((2-(2-(2-(4-(6-((6-Acetyl-8-cyclopentyl-5-methyl-7-oxo-7,8-dihydropyrido[2,3-d]pyrimidin-2-yl)amino)pyridin-3-yl)piperazin-1-yl)acetamido)ethyl)-2H-1,2,3-triazol-4-yl)amino)-N-(6-(dimethylamino)pyridazin-3-yl)-6-(methylamino)nicotinamide]	D (degradation activity <30%)	A (degradation activity >80%)
CNc1ccc(C(=O)Nc2ccc(N(C)C)nn2)c(Nc2cc(CCNC(=O)CN3CCN(c4ccc(Nc5ncc6c(C)c(C(C)=O)c(=O)n(C7CCCC7)c6n5)nc4)CC3)no2)n1 [CPD-26, 2-((3-(2-(2-(4-(6-((6-Acetyl-8-cyclopentyl-5-methyl-7-oxo-7,8-dihydropyrido[2,3-d]pyrimidin-2-yl)amino)pyridin-3-yl)piperazin-1-yl)acetamido)ethyl)isoxazol-5-yl)amino)-N-(6-(dimethylamino)pyridazin-3-yl)-6-(methylamino)nicotinamide]	A (degradation activity >80%)	A (degradation activity >80%)
CC(=O)c1c(C)c2cnc(Nc3ccc(N4CCN(CC(=O)NCCCCCNc5nc(C6CC6)ccc5C(=O)Nc5ccc(N(C)C)nn5)CC4)cn3)nc2n(C2CCCC2)c1=O [CPD-27, 2-((5-(2-(4-(6-((6-Acetyl-8-cyclopentyl-5-methyl-7-oxo-7,8-dihydropyrido[2,3-d]pyrimidin-2-yl)amino)pyridin-3-yl)piperazin-1-yl)acetamido)pentyl)amino)-6-cyclopropyl-N-(6-(dimethylamino)pyridazin-3-yl)nicotinamide]	A (degradation activity >80%)	A (degradation activity >80%)
CC(=O)c1c(C)c2cnc(Nc3ccc(N4CCN(CC(=O)NCCCCCNc5nc(C#N)ccc5C(=O)Nc5ccc(N(C)C)nn5)CC4)cn3)nc2n(C2CCCC2)c1=O [CPD-28, 2-((5-(2-(4-(6-((6-Acetyl-8-cyclopentyl-5-methyl-7-oxo-7,8-dihydropyrido[2,3-d]pyrimidin-2-yl)amino)pyridin-3-yl)piperazin-1-yl)acetamido)pentyl)amino)-6-cyano-N-(6-(dimethylamino)pyridazin-3-yl)nicotinamide]	A (degradation activity >80%)	A (degradation activity >80%)
CNc1ccc(C(=O)Nc2ccc(N(C)C)nn2)c(NC(C)CCCCNC(=O)CN2CCN(c3ccc(Nc4ncc5c(C)c(C(C)=O)c(=O)n(C6CCCC6)c5n4)nc3)CC2)n1 (stereo not drawn) [CPD-29, 2-((6-(2-(4-(6-((6-Acetyl-8-cyclopentyl-5-methyl-7-oxo-7,8-dihydropyrido[2,3-d]pyrimidin-2-yl)amino)pyridin-3-yl)piperazin-1-yl)acetamido)hexan-2-yl)amino)-N-(6-(dimethylamino)pyridazin-3-yl)-6-(methylamino)nicotinamide]	A (degradation activity >80%)	A (degradation activity >80%)
CNc1ccc(C(=O)Nc2ccc(N(C)C)nn2)c(NCCCCn2cc(CN3CCN(c4ccc(Nc5ncc6c(C)c(C(C)=O)c(=O)n(C7CCCC7)c6n5)nc4)CC3)nn2)n1 [CPD-30, 2-((4-(4-((4-(6-((6-Acetyl-8-cyclopentyl-5-methyl-7-oxo-7,8-dihydropyrido[2,3-d]pyrimidin-2-yl)amino)pyridin-3-yl)piperazin-1-yl)methyl)-1H-1,2,3-triazol-1-yl)butyl)amino)-N-(6-(dimethylamino)pyridazin-3-yl)-6-(methylamino)nicotinamide]	A (degradation activity >80%)	A (degradation activity >80%)
